Reference: PubChem BioAssay AID2546 (National Center for Advancing Translational Sciences (NCATS), 2010)
In all, about 310,000 compounds went through this assay and about 11,000 (3.5%) were called active. This list was built around the results that the source calls inconclusive (neither active nor inactive); the mix of calls is not that of the screen. The call rests on the fitted dose curve; in most records, active means well fitted inhibition curve with a large enough effect; inconclusive means small, poorly fitted or top-dose-only effect, or effect the other way; inactive means flat fitted curve, though single readings scatter. Potencies of inconclusive entries are left out as doubtful fits.

Test: VP16 counterscreen qHTS for inhibitors of ROR gamma transcriptional activity;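 further: Gal4-VP16 expression switched on by copper sulfate through the metallothionein promoter; nearly all actives have a fitted effect of over 50% in size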
Settings: Drosophila S2 Gal4-VP16 UAS-luciferase, luminescence, 20 h; series mostly up to 53.6 µM
Potency means the concentration at half of the fitted maximal effect; tags describe the fitted curve by direction and shape.

Row | Structure (SMILES) | Potency
1 | CCOc1ccc(NC(=O)C2CCN(S(=O)(=O)c3ccc4c(c3)CC(C)N4C(C)=O)CC2)cc1 (configuration not stated) | inconclusive [inhibitor, single point]
2 | C/[N+]([O-])=C\c1cccc(OCCN2CCN(c3ncc(C(F)(F)F)cc3Cl)CC2)c1 | inactive
3 | O=C(COC(=O)CC1CCCC1)Nc1cc2c(cc1Cl)C(=O)c1ccccc1C2=O | inconclusive [inhibitor, single point]
4 | Cc1ccc2nc(N3CC(=O)Nc4ccccc43)nc(-c3ccccc3)c2c1 | inconclusive [inhibitor, single point]
5 | COc1ccc(NC(=O)c2cc(S(=O)(=O)Nc3ccc(OC)cc3)cs2)cc1 | active: 11.2 µM
6 | COc1ccc(CNCC(O)(c2ccccc2)c2ccccc2)cc1OC | inconclusive [inhibitor, single point]
7 | COc1ccc(Oc2cn[nH]c2-c2ccc(OC)cc2O)cc1 | inconclusive [inhibitor, single point]
8 | C/C(=N\Nc1nc(-c2ccccc2O)nc2ccccc12)c1ccccc1 | inconclusive [inhibitor, single point]
9 | CN(/N=C/c1ccccc1O)C(=S)c1ccccc1 | inconclusive [inhibitor, single point]
10 | O=C1C2C(c3ccccc3)CC=CC2C(c2ccc(C(F)(F)F)cc2)N1Cc1ccccc1 (configuration not stated) | inconclusive [inhibitor, single point]
11 | Cc1ccccc1NC(=O)CSc1nc2ccccc2c(=O)n1C | active: 11.2 µM
12 | CNc1ccccc1C(C)(C)c1cc(-c2cccc(OC)c2)no1 | inconclusive [inhibitor, full curve]
13 | Cc1c(C(=O)Nc2cccc(Cl)c2)cn2c(nc3ccccc32)c1C#N | inconclusive [inhibitor, partial curve, poor fit]
14 | CCc1cc2c(=O)c(-c3ccc4c(c3)OCCO4)c(C)oc2cc1OS(C)(=O)=O | active: 20 µM
15 | C=CCNC(=S)N/N=C/c1ccc(-c2cccc([N+](=O)[O-])c2)o1 | active: 2.51 µM
16 | CCCOC1CCCN(C(=O)c2ccc(OC3CCN(C(=O)COC)CC3)cc2)C1 (configuration not stated) | inactive
17 | O=C(NCc1ccccc1)c1cccc(COc2ccc(Cl)cc2)c1 | inconclusive [inhibitor, single point]
18 | Cc1ccc(C)c(OCC(O)CN2CCN(CCN3C(=O)c4cccc5cccc(c45)C3=O)CC2)c1 (configuration not stated) | inconclusive [activator, single point]
19 | COc1ccc(CN(N=O)C2CC(=O)N(c3ccc(OC)cc3)C2=O)cc1 (configuration not stated) | active: 14.1 µM
20 | Cc1nc2sc(C(=O)c3ccccc3)c(N)c2c2c1CCCC2 | inconclusive [activator, single point]
21 | Cc1nc2sc(C(=O)Nc3ccccc3Cc3ccccc3)c(C)c2c(=O)[nH]1 | inactive
22 | CC(=O)N/C(N)=N/c1nc2cc(C)ccc2o1 | inconclusive [inhibitor, partial curve]
23 | COc1ccccc1-c1cc(C(F)(F)F)n2ncc(C(=O)N3CCc4ccccc4C3)c2n1 | inconclusive [inhibitor, single point]
24 | Nc1ccc(C(=O)O)c(O)c1 (tested in a mixture with another compound) | inconclusive [inhibitor, single point]

Row | Structure (SMILES) | Potency
25 | CCN(/C(N)=N/c1nc(C)cc(C)n1)c1ccccc1 | inactive
26 | COC1=NS(=O)(=O)c2ccccc21 | inconclusive [activator, single point]
27 | CC1=NN(C(N)=S)C(=O)C1N=Nc1ccc(C)c(Br)c1 (configuration not stated) | active: 2.82 µM
28 | O=c1cc(CSc2ccc(Cl)cc2)nc(-c2ccccn2)[nH]1 | active: 4.47 µM
29 | COc1ccc(OCc2n(CC(=O)OC3CC(C)CCC3C(C)C)c3ccccc3[n+]2C)cc1 (configuration not stated) | inconclusive [inhibitor, single point]
30 | O=C(NNC(=S)NC(=O)c1ccc(Br)cc1)c1ccc([N+](=O)[O-])cc1 | inconclusive [inhibitor, single point]
31 | COc1ccccc1NCC(=O)N/N=C(\C)c1ccc(Br)s1 | inconclusive [inhibitor, single point]
32 | CCN(CC(=O)NCc1ccncc1)S(=O)(=O)c1cc(Cl)ccc1Cl | inconclusive [inhibitor, single point]
33 | O=C(NCCO)c1ccc(Oc2ccc(C(F)(F)F)cc2[N+](=O)[O-])cc1 | inactive
34 | CC(C)N1CCc2c(sc(NC(=S)NC(=O)c3ccccc3)c2C#N)C1 | inconclusive [inhibitor, single point]
35 | C=CCn1cnc2c(c1=O)c1nc3ccccc3nc1n2/N=C/c1cccc(OC)c1 | inconclusive [inhibitor, partial curve]
36 | O=c1[nH]c(CSc2nc3ccccc3s2)nc2ccccc12 | inactive
37 | Clc1ccccc1Nc1nc(-c2cccnc2)cs1 | inconclusive [inhibitor, single point]
38 | COc1ccccc1NC(=S)NNC(=O)c1cc(C)n(C)n1 | inconclusive [inhibitor, single point]
39 | N=c1c2c(-c3ccccc3)c(-c3ccccc3)n(Cc3ccco3)c2ncn1CCCN1CCOCC1 | inconclusive [inhibitor, single point]
40 | CCC/C(=N/NC(=O)c1cccc(Cl)c1)c1ccccc1 | inconclusive [inhibitor, single point]
41 | COc1ccccc1N(/N=C1\Sc2ccccc2C1=O)C(C)=O | inconclusive [inhibitor, partial curve]
42 | O=C(NCCN1CCN(c2ccccc2)CC1)c1ccccc1F | inactive
43 | CCCCc1ccc(NC(=O)COc2ccc(C(=O)Nc3ccccc3OCC)cc2)cc1 | active: 10 µM
44 | Clc1ccc2[nH]c(-c3ccccc3)cc2c1 | inactive
45 | COc1ccc2ccc3c(c2c1)N=C[C@]1(O3)N(C)c2ccccc2C1(C)C | inconclusive [inhibitor, single point]
46 | Cc1ccc2c(c1)C(c1ccccc1)N(C(=O)c1cccc([N+](=O)[O-])c1)CC(=O)N2 (configuration not stated) | inactive
47 | Cc1c(Cc2ccc3c(c2)OCO3)sc(NC(=O)C(C)(C)C)c1C#N | inconclusive [inhibitor, single point]
48 | CN(/N=C/c1ccc([N+](=O)[O-])o1)c1ccccc1 | inconclusive [activator, full curve]

Row | Structure (SMILES) | Potency
49 | COc1ccccc1NC(=O)C(=O)N/N=C/c1cccs1 | active: 3.16 µM
50 | CCC(=O)NC(=S)Nc1cccc(Cl)c1N1CCCC1 | inconclusive [inhibitor, full curve]
51 | COC(CNc1ncnc2sc(-c3ccccc3)cc12)OC | inactive
52 | C=CCNc1nc(Cl)nc(Nc2cc(Cl)ccc2OC)n1 | inconclusive [inhibitor, partial curve]
53 | COc1ccc(C/C(C)=N/NC(=O)c2ccc(Cl)cc2)cc1 | inconclusive [inhibitor, single point]
54 | O=C(Nc1ccc2oc(-c3ccccc3)nc2c1)c1ccncc1 | inactive
55 | COc1ccc(CNC(=S)N/N=C/c2ccncc2)cc1 | inconclusive [inhibitor, single point]
56 | O=C(Nc1ccccc1)Nc1nnc(CSCc2ccccc2Cl)s1 | inconclusive [inhibitor, single point]
57 | O=C(NNc1cc(N2CCOCC2)nc(N2CCOCC2)n1)c1ccc(Cl)c(Cl)c1 | inconclusive [inhibitor, single point]
58 | CN1CCN(C(=S)c2cn(Cc3cccc(F)c3)c3ccccc23)CC1 | inactive
59 | c1ccc(-c2nc(Sc3ncnc4c3cnn4-c3ccccc3)n[nH]2)cc1 | inconclusive [inhibitor, single point]
60 | COc1ccc2c(c1)-c1nc(NC(=O)c3cccs3)sc1CC2 | inconclusive [inhibitor, single point]
61 | CC(C)(C)c1ccc(/C=C/C(=O)N2CCc3ccccc3C2)cc1 | active: 1 µM
62 | CCOC(=O)Cc1ccc(NC(=O)c2ccccc2Br)cc1 | inactive
63 | C/C(=N\NC(=O)C1CC1c1ccccc1)c1cccc([N+](=O)[O-])c1 (configuration not stated) | inconclusive [inhibitor, single point]
64 | CCOC(=O)c1[nH]c2ccccc2c1NC(=S)Nc1cccc(C)c1C | inconclusive [inhibitor, single point]
65 | Cc1ccc2nc(N(CCN(C)C)C(=O)/C=C/c3cccs3)sc2c1 | inconclusive [inhibitor, partial curve]
66 | O=C(Nc1cccc(Cl)c1)Nc1nnc(CSCCOc2ccc(Cl)cc2)s1 | inconclusive [inhibitor, single point]
67 | COc1ccc(NC(=O)CCSc2nc(C)cs2)cc1 | inactive
68 | O=C(Nc1nnc(CCc2ccccc2)s1)c1ccccc1 | inconclusive [inhibitor, single point]
69 | COC(=O)/C=C1/S/C(=N/N=C/c2ccco2)NC1=O | inconclusive [inhibitor, single point]
70 | Nc1nnc(-c2cccc(F)c2)s1 | inactive
71 | COC(=O)c1ccc2c(=O)n(CCCCCC(=O)O)c(=S)[nH]c2c1 | active: 14.1 µM
72 | CC(Oc1ccc([N+](=O)[O-])cc1)C(=O)NCC1CCCO1 (configuration not stated) | inactive
